# ChEMBL document CHEMBL4888484, “Replenishing the malaria drug discovery pipeline: Screening and hit evaluation of the MMV Hit Generation Library 1 (HGL1) against asexual blood stage Plasmodium falciparum ,using a nano luciferase reporter read-out” (2022)
# Hit rate of the full screen: of about 150,000 compounds, about 540 (0.36%) showed an effect of 50% or more. The list shows a part of the results.
# Tested on: Plasmodium falciparum
# Assay: Primary screen in NF54 nanoGlo assay, in single point, at 2uM, 72h; a lower Z score goes with more inhibition
# Format: functional, Erythrocyte
# Details: timepoint 72 hour
Compound,% Inhibition [%],Z score
Cc1cccc([C@H](C)NC(=O)CCc2cn[nH]c2)n1,-12,1.75
CN1CCC(CCO)(NC(=O)c2cc(F)cc3ccoc23)CC1,-1,0.25
COC(=O)N1CCC[C@H](NC(=O)Nc2cccc(OC(F)F)c2)C1,2,-0.27
O=C(NCc1ccccc1F)c1ccc(CN2C(=O)CNC2=O)cc1,-5,0.5
C[C@H](NC(=O)c1nn(C)cc1Cl)c1nc(C2CC2)no1,-12,1.39
Cc1nc(C(C)C)sc1CNC(=O)c1cnc(N)s1,-14,1.58
CC1CC(N[C@@H]2CCCC[C@H]2NC(=O)OC(C)(C)C)CC(C)O1 (stereo partly specified),-2,0.27
CCOC(=O)CCC(=O)N1CCC(Oc2ccc(C)nn2)CC1,-11,2.1
CC1CCC(C)N1C(C)C(=O)NCc1ccc(F)c(CO)c1 (stereo unspecified),-4,0.72
COC(=O)c1c(CS(=O)(=O)c2ccc(C)cc2)nn2c1CCCC2,0,-0.05
Cn1nc(CN2CCOCC2)c2c1CCN(S(=O)(=O)c1ccccc1)C2,-15,2.78
O=C(NCC1CN2CCCC2CO1)NC1CCCCC1 (stereo unspecified),-4,0.6
O=C1N[C@]2(Nc3ccccc31)C(=O)Nc1cc3c(cc12)OCCO3,1,-0.09
N#Cc1c(-c2ccccc2)cc(C[C@H]2CCOC2)nc1N,6,-0.7
CCn1cc([C@H](CC(=O)NC2CCCCC2)c2cccc(Cl)c2)c2ccccc21,-3,0.52
COC(=O)[C@H]1CCc2cnn(Cc3ccc(-n4cccn4)cc3)c2C1,-2,0.35
CCN(CCOc1cccc(C)c1)C(=O)N[C@@H](C)Cn1cncn1,-1,0.09
CCOc1ccc(NC2=NC(=O)[C@@H](C#N)C3(CCN(Cc4ccccc4)CC3)N2)cc1,34,-0.64
C[C@@H](Cn1c(=O)[nH]c2ccccc2c1=O)N(C)c1ccccc1,33,-4.83
COCc1c(C(=O)NC[C@H]2COCCO2)cnn1-c1ncc2c(n1)-c1ccccc1CCC2,2,-0.36
COc1ccc(NC(=O)c2nn(CC3CC3)c3c2COCC3)c(OC)c1,-10,1.89
CCOC1CC(NC(=O)NC(C)c2nc(C)cs2)C1(C)C (stereo unspecified),-6,0.77
Cc1ccc2cc3n(c2c1)C[C@](C(=O)NC1CCCCCCC1)(c1ccccc1)N(Cc1cccc(F)c1)C3=O,4,-0.64
CC(C)CC(C)N(C)C(=O)NC(C)Cc1ccsc1 (stereo unspecified),-3,0.26
O=C(c1cccnc1-c1ccc(Cl)c(C(F)(F)F)c1)N1CCCC1,-8,1.18
CN(C)C(=O)c1cc(S(=O)(=O)N2CCCC[C@H]2c2nc(-c3ccccc3)c[nH]2)cn1C,-7,0.98
Cc1[nH]ccc1C(=O)NC1CCC(CS(C)(=O)=O)CC1 (stereo unspecified),-5,0.59

Compound,% Inhibition [%],Z score
C[C@H](NC(=O)c1cnn2c1OCCC2)c1ccccc1,-3,0.43
CCC[C@H]1CN(c2nnc(-c3ccccc3)s2)C[C@@H]1N,4,-0.7
FC(F)(F)C(Oc1nc(N2CCCCCC2)nc(N(c2ccccc2)c2ccccc2)n1)C(F)(F)F,4,-0.51
OCc1cc(-c2cccc3ccsc23)ccn1,-6,0.53
Cc1cc(-n2ccnc2)ccc1CN1C[C@H](C)OCC1(C)C,5,-0.91
CC(C)c1ccc([C@@H]2c3cccn3CCCN2Cc2ccco2)cc1,6,-0.95
Cc1ccc(CCC(=O)N[C@@H](C)c2ccccc2N2CCOCC2)o1,-12,1.65
COc1ccc(C2CN(C(=O)c3ccccc3C)CC2C(=O)NC2CC2)c(OC)c1 (stereo unspecified),-10,1.18
CCn1cc([C@H](C)NCc2cnn(CC)n2)cn1,-1,0.13
CCCc1c(NC(=O)[C@H]2OCCO[C@H]2C)cnn1-c1cccc(C)c1,-5,0.55
COc1cccc2cc(CN3CCN(Cc4cc(C)on4)CC3)oc12,-12,1.06
Cc1oc(-c2ccccc2Cl)cc1C(=O)NCc1csc(N)n1,-3,0.64
CC(NC(=O)C1CCCN1c1ncnc2ccccc12)c1ncon1 (stereo unspecified),-8,1.29
CC(C)c1cc(C(=O)N2CCC[C@H](c3[nH]ncc3-c3ccc(F)cc3)C2)n(C)n1,-4,0.63
CCc1ccc(C(=O)N2CCC(n3cnnc3COC)CC2)cc1,-6,0.96
O=C(O)CC[C@@H]1CN(c2nccc3ccccc23)CC[C@@H]1N1CCOCC1,-12,1.22
CC(C)C(=O)N(CC(=O)N1CCCN(c2ccc(-c3ccccc3)nn2)CC1)[C@@H](C)c1ccccc1,-12,1.13
CCNC(=O)N1CCN([C@H](C(=O)N(C)Cc2ccccc2)C2CCCC2)CC1,-1,0.24
CC(C)(C)OC(=O)N1CCN(c2nnc(N)[nH]2)CC1,10,-1.27
COc1cc2c(cc1OC)CN(C(=O)c1cccc(N3CCCC3=O)c1)CC2,5,-0.76
Cn1nc(-c2nc(C3CCOCC3)no2)c2c1CN(C(=O)Cc1cccs1)C2,8,-1.22
CC1CN(CC2CCCO2)CCC1NC(=O)N1CCCC1C1CCC1 (stereo unspecified),-5,0.86
O=C(c1nccc2ccccc12)N1CC[C@H](OCC2CC2)C1,-4,0.44
Cc1nc(O)cc(CNC(=O)c2cccc(-c3ccc(C(C)C)nn3)c2)n1,-10,1.84
Cn1cc(CN[C@H]2CCCN(c3ccc(C#N)cc3F)C2)c(=O)n(C)c1=O,-5,0.48
CCCn1cc(C(=O)N(Cc2ccncc2)C[C@@H]2CCC(=O)N2)c(C)n1,0,0.07
